# Laboratory results: the supplement of paper PMC8728848
# Shown is part of a subset that was picked to be rich in the strongest signals.
# Columns and labels:
# Experiment in all cases: glycan array binding signal (z-score within array); higher = stronger binding
# Conditions in all cases: glycan notation: IUPAC condensed, linker removed
# [1] = tested on: Gal(b1-3)[Fuc(a1-4)]GlcNAc(b1-2)Man
# Outline: (§1)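 Arrays were curated from the Consortium for Functional Glycomics database, 3228 in total, and kept only where the protein sequence was available. Binding is expressed as a within-array Z-score. This score was averaged across arrays of the same protein sequence at different concentrations or buffers and across linkers, and negative values can be read as non-binding.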
# [2] = tested on: Gal(b1-3)[Fuc(a1-4)]GlcNAc(b1-3)Gal(b1-4)GlcNAc
# Outline: as §1
# [3] = tested on: Gal(b1-3)[Neu5Ac(b2-6)]GalNAc
# Outline: as §1
# [4] = tested on: Gal(b1-3)[Fuc(a1-4)]GlcNAc(b1-3)Gal(b1-4)[Fuc(a1-3)]GlcNAc
# Outline: as §1
# [5] = tested on: Gal(b1-3)[Fuc(a1-4)]GlcNAc(b1-6)GalNAc
# Outline: as §1
# [6] = tested on: Gal(b1-3)[GlcNAc(b1-6)]GalNAc
# Outline: as §1
# [7] = tested on: Gal(b1-3)[GlcNAc(b1-6)]GlcNAc
# Outline: as §1
# [8] = tested on: Gal(b1-3)[Neu5Ac(a2-6)]GalNAc
# Outline: as §1
# [9] = tested on: Gal(b1-3)[Neu5Ac(a2-6)]GlcNAc(a1-4)Gal(b1-4)Glc
# Outline: as §1
substance,measurement,setting,value
FGF2 (chain not printed),glycan array binding signal (z-score),[1],1.9
STIM-3 (Mus musculus) (chain not printed),glycan array binding signal (z-score),[2],0.787
CLEC-2 (Homo sapiens) (chain not printed),glycan array binding signal (z-score),[2],-0.004
same,glycan array binding signal (z-score),[3],-0.104
Galectin-8 C-terminal CRD (Homo sapiens) (chain not printed),glycan array binding signal (z-score),[4],-0.136
Meso764 (Homo sapiens) (chain not printed),glycan array binding signal (z-score),[5],-0.749
same,glycan array binding signal (z-score),[6],-0.305
M-Ficolin G221F A256V (Homo sapiens) (chain not printed),glycan array binding signal (z-score),[6],-0.331
Gal 8-short (Homo sapiens) (chain not printed),glycan array binding signal (z-score),[7],0.955
Gal 8 long (Homo sapiens) (chain not printed),glycan array binding signal (z-score),[7],-0.303
M-Ficolin (Homo sapiens) (chain not printed),glycan array binding signal (z-score),[8],-0.154
Serum Amyloid P component (Homo sapiens) (chain not printed),glycan array binding signal (z-score),[9],-0.356
NCAM1 (Homo sapiens) (chain not printed),glycan array binding signal (z-score),[3],-0.339
